Among all 360,000 compounds or so, about 660 (0.18%) were called active. Inconclusive results, whose numbers are uncertain, are shown with a selection of clear calls. The call rests on the fitted dose curve; in most records, active means well fitted inhibition curve with a large enough effect; inconclusive means small, poorly fitted or top-dose-only effect; inactive means no such curve, though single readings can be large or run the other way. No potency is given beside an inconclusive call; the fits are too rough.
These molecules were tested against Rap guanine nucleotide exchange factor 4 (Homo sapiens) (UniProt Q8WZA2) (assay: qHTS for Antagonist of cAMP-regulated guanine nucleotide exchange factor 2 (EPAC2): primary screen). Conditions: EPAC2 GEF exchange of Rap1B-BODIPY-GDP, fluorescence; series mostly up to 114 µM.
Chain of UniProt Q8WZA2 (Q8WZA2 whole entry, looked up): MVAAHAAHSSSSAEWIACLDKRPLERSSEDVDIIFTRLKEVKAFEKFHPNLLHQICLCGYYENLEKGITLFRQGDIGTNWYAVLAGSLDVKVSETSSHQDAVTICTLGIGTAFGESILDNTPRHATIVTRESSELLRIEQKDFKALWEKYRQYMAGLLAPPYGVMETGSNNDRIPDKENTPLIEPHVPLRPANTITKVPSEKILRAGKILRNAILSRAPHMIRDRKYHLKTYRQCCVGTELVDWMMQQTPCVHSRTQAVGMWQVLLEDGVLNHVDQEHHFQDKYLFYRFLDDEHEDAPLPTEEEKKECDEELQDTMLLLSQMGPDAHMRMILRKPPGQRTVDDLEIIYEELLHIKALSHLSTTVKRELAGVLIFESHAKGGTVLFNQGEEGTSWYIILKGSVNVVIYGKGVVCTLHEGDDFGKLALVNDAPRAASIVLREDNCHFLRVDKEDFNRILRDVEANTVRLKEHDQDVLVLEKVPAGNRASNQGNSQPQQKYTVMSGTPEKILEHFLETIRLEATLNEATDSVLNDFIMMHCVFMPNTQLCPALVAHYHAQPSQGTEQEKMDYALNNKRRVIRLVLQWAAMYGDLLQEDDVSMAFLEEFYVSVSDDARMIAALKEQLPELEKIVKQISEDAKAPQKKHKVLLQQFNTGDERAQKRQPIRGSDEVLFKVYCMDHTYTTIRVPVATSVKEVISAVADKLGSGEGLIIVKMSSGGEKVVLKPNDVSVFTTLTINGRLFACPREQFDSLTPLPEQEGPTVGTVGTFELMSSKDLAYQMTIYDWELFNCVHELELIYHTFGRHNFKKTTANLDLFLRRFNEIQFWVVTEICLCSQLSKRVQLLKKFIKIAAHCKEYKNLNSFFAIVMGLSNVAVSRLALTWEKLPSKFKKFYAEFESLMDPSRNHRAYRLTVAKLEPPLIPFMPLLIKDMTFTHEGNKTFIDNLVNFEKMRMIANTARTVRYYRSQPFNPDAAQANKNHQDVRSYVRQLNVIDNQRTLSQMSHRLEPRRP
Further: nearly all actives have a fitted effect of over 45% in size.
Potency means the concentration at half of the fitted maximal effect; tags describe the fitted curve by direction and shape.

SMILES | Potency
Cc1nn(C)c(C)c1N1C(=O)c2cccc3c(Br)ccc(c23)C1=O | inconclusive [inhibitor, single point]
Cc1ccccc1N=Cc1c(O)n(-c2nccs2)c(=O)c2ccccc12 | inactive
CCN(C(=O)COC(=O)c1cc(OC)ccc1Br)C1CCS(=O)(=O)C1 (stereo unspecified) | inconclusive [inhibitor, single point]
COc1ccc2c(c1)C(=O)CCC2c1ccccc1 (stereo unspecified) | inconclusive [inhibitor, partial curve]
COC(=O)c1cn(C(=O)c2ccc(Cl)cc2)c2ccccc12 | inconclusive [inhibitor, single point]
CN(C(=S)Nc1cccnc1)c1ccc(O)cc1 | inactive
O=S1(=O)NC(c2ccccc2)CC(CC2CCCCC2)O1 (stereo unspecified) | inconclusive [inhibitor, full curve]
O=C(O)c1cc(O)c2c(c1)[C@H]([C@H]1c3cc(C(=O)O)cc(O)c3C(=O)c3c(O[C@@H]4O[C@H](CO)[C@@H](O)[C@H](O)[C@H]4O)cccc31)c1cccc(OC3O[C@H](CO)[C@@H](O)[C@H](O)[C@H]3O)c1C2=O (stereo partly specified) | inconclusive [inhibitor, full curve]
C[C@H](O)[C@@H]1C(=O)N2CCc3ccc(N4CCN(C)CC4)cc3[C@@H]2C[C@@H]1N(C)C(=O)c1ccc(C#N)cc1 | inactive
O=C(Nc1cccc(S(=O)(=O)Nc2ccccc2F)c1)c1ccc2ccccc2n1 | inactive
O=C(CSc1nc(-c2ccccc2)nc2ccccc12)Nc1cccc(C(=O)O)c1 | inactive
CCCCCCCCN1C(=O)[C@H](CC(=O)NCCCOC)C[C@@]2(C(=O)OC)CC(C)(C)CC=C12 | inconclusive [inhibitor, full curve]
CCCCOc1ccc(C(=O)N/C(=C\c2cccc([N+](=O)[O-])c2)C(=O)OCc2ccco2)cc1 | inactive
O=C1c2ccccc2-c2ccc(C(=O)N3CCCCC3)cc21 | inconclusive [inhibitor, full curve, poor fit]
Cc1cc(C)c(OCC(=O)Nc2ccccc2N2CCOCC2)c(C)c1 | inconclusive [inhibitor, full curve]
O=C(CCCOc1ccccc1)Nc1ccc(Br)cc1 | inactive
CCN1C(=O)C(CC(=O)Nc2ccc(OC)cc2)N(CCc2ccc(F)cc2)C1=S (stereo unspecified) | inactive
CSc1ccc(CC(=O)N2CCC(n3nccc3NC(=O)C3CC3)CC2)cc1 | inactive
CC(=O)c1c(C(C)=O)c(C)n(-c2nc(-c3ccccc3)c(C)s2)c1C | inconclusive [inhibitor, single point]
O=C(/C(=N/O)c1ccccc1)c1ccccc1 | inconclusive [inhibitor, partial curve, poor fit]
C[C@H](CO)N1C[C@H](C)[C@@H](CN(C)Cc2ccc(C(=O)O)cc2)Oc2c(NS(=O)(=O)c3cn(C)cn3)cccc2C1=O | inactive
COC(=O)/C=C1\OC(c2ccccc2)c2ccccc21 (stereo unspecified) | inconclusive [inhibitor, partial curve]
CCCCN1/C(=C/c2ccc3ccccc3[n+]2CC)Sc2ccccc21 | inactive

SMILES | Potency
O=C(Nc1ccc(Cl)cc1)Nc1ccccc1NS(=O)(=O)c1cccs1 | inconclusive [inhibitor, full curve, poor fit]
Cc1ccc(Nc2nc(NCc3ccco3)c3ccccc3n2)cc1 | inconclusive [inhibitor, single point]
O=C(CSc1nc2ccccc2c(=O)n1Cc1ccco1)N1CCN(c2ccccc2)CC1 | inactive
C[N+](C)(C)CCN(Cc1ccc(Cl)cc1)c1ccccn1 | inactive
CCOC(=O)C1CCCCN1C(=O)c1oc2c(Cl)cc(C)cc2c1C (stereo unspecified) | inconclusive [inhibitor, single point]
CC(C)N1CCc2c(sc(NC(=O)c3ccc(S(=O)(=O)N4CCOCC4)cc3)c2C#N)C1 | inactive
C=CCSc1nnc(-c2ccc([N+](=O)[O-])cc2)o1 | inactive
CCn1nccc1C(=O)Nc1cccc(C)c1C | inconclusive [inhibitor, full curve, poor fit]
Clc1ccc(N=C2SCC3CCCCN23)cc1 (stereo unspecified) | inconclusive [inhibitor, partial curve]
CC(C)N(C(=O)Nc1ccc2nsnc2c1)C(C)C | inconclusive [inhibitor, partial curve]
CC(C)(C)C1CCc2c(sc3nc(SCC(=O)O)nc(N)c23)C1 (stereo unspecified) | inconclusive [inhibitor, partial curve]
CCOC(=O)N1CCC2CC1c1cc(-c3cccc(OC)c3)ccc12 (stereo unspecified) | inconclusive [inhibitor, full curve, poor fit]
COc1ccc(S(=O)(=O)N2CCOCC2)cc1NC(=O)CC(C)c1ccccc1 (stereo unspecified) | inactive
C=CCn1c(CSCc2ccc(Cl)cc2Cl)nnc1SCC(=O)Nc1ccc(C(=O)O)cc1 | inconclusive [inhibitor, full curve, poor fit]
Cc1ccc(C)c(S(=O)(=O)N2CCN(C(=O)CCCc3c[nH]c4ccccc34)CC2)c1 | inactive
CCCc1cc(=O)oc2c3c(cc(OCC(=O)NCc4ccccn4)c12)OC(C)(C)CC3 | inconclusive [inhibitor, partial curve]
COc1ccc(NC(=O)CN2CCN(CC(=O)Nc3ccc(OC)cc3)CC2)cc1 | inactive
CCCCCCCCCS(=O)(=O)N/N=C/c1cccc([N+](=O)[O-])c1 | inconclusive [inhibitor, partial curve]
CC1=NN(c2ccccc2)C(=O)/C1=C/C=C/C=C/N(C)C | inconclusive [inhibitor, partial curve]
Cc1ccc(S(=O)(=O)NCc2ccc3c(c2)cc(C)n3C)cc1 | inactive
CCOC(=O)C1=C(Cc2ccc(OC)cc2)C(=O)c2ccccc2C1=O | inactive
Cc1cc(/C=C2\SC(=S)NC2=O)c(C)[nH]1 | inactive
CCCN(CCC)Cc1cc(=O)oc2ccc3ccccc3c12 | inconclusive [inhibitor, partial curve]

From PubChem BioAssay AID720708 (National Center for Advancing Translational Sciences (NCATS), 2013)
